Source: PubChem BioAssay AID2675 (National Center for Advancing Translational Sciences (NCATS), 2010)
Screen size: about 280,000 compounds; about 100 (0.036%) were called active. The inconclusive results got no clear call from the source; some entries with a clear call stand among them for comparison. The call rests on the fitted dose curve; in most records, active means well fitted inhibition curve with a large enough effect in the signal ratio, with a control signal flat (not every such curve was filed as active); inconclusive means small, poorly fitted or top-dose-only effect, or effect the other way, or a change in a side signal; inactive means no such curve, though single readings can be large or run the other way; the % refers to the signal ratio. Where the call is inconclusive, the potency comes from a doubtful curve fit. “Side channel” marks fits to a control or component signal instead of the main read-out.

target: Muscleblind-like protein 1 (Homo sapiens) (UniProt Q9NR56); experiment: qHTS Assay for Inhibitors of MBNL1-poly(CUG) RNA binding; conditions: TR-FRET MBNL1-His/biotin-(CUG)12 binding, 665/545 ratio; activity change, negative = inhibition: at 57.5 µM (top of the series)
In short: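 Inhibition of protein-RNA binding appears as loss of TR-FRET between terbium anti-His antibody on MBNL1-His and streptavidin-XL665 on biotin-(CUG)12. Activity is normalized to buffer-only and uninhibited-complex controls.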
On the % scale 0 is the no-effect control and ±100 the full control effect; potency means the concentration at half of the fitted maximal effect; tags describe the fitted curve by direction and shape or compound fluorescence and quenching.

Chain of UniProt Q9NR56 (Q9NR56 whole entry, looked up): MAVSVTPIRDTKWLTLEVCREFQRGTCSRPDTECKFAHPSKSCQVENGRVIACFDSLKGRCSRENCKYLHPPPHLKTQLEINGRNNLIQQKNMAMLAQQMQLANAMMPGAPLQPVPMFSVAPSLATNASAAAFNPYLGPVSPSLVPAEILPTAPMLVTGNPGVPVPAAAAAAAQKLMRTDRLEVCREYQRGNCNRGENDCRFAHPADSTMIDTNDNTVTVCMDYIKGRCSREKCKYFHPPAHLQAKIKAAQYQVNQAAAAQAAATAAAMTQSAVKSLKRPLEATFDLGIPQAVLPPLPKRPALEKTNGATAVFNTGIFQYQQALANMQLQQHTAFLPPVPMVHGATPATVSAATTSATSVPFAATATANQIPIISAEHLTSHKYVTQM

| SMILES | Potency | activity change, negative = inhibition |
| --- | --- | --- |
| CCC(=O)NC(c1ccccc1Cl)c1c(O)ccc2ccccc12 (stereo unspecified) | inconclusive: 0.112 µM [fluorescent, side channel, full curve] |  |
| Cc1nc2ccc([N+](=O)[O-])cc2nc1C | inconclusive: 14.1 µM [quencher, side channel, partial curve] |  |
| COc1ccccc1OCCCC(=O)Nc1ccc([N+](=O)[O-])cc1Br | inconclusive: 14.1 µM [quencher, side channel, partial curve] |  |
| CC1CCCN(S(=O)(=O)c2cccc(-c3cn4cccnc4n3)c2)C1 (stereo unspecified) | inactive |  |
| CC(C)(C)c1cnnn1-c1ccc(/C=N/Nc2ccc([N+](=O)[O-])cc2)cc1 | inactive |  |
| Cc1c(NC(=O)c2cc3ccccc3c(=O)s2)c(=O)n(-c2ccccc2)n1C | inconclusive: 22.4 µM [quencher, side channel, partial curve] |  |
| c1ccc(-c2cnc(CSc3ncnc4sccc34)o2)cc1 | inactive |  |
| CC1=NN(c2ccc(Cl)c(C(=O)O)c2)C(=O)C1 | inconclusive: 158 µM [inhibitor, partial curve, poor fit] |  |
| O=S(=O)(/N=C(/Sc1ccccc1)c1ccccc1)c1ccccc1 | inactive |  |
| CCC(=O)N1CCN(c2ccc(Cl)cc2NC(=O)c2ccc([N+](=O)[O-])o2)CC1 | inconclusive: 5.01 µM [quencher, side channel, partial curve] |  |
| COc1cc(/C=c2\sc3n(c2=O)CCCN=3)ccc1O | inconclusive: 15.8 µM [quencher, side channel, partial curve] |  |
| COc1cc(/C=C2\SC(=S)N(NS(=O)(=O)c3ccccc3)C2=O)cc(OC)c1OC | inconclusive: 39.8 µM [quencher, single point] |  |
| C=CCN1CCN(C(c2ccccc2)c2nnnn2CCC(C)C)CC1 (stereo unspecified) | inactive |  |
| O=C1C2=C(SCCS2)C(=O)N1CCCO | inconclusive: 39.8 µM [quencher, side channel, single point] |  |
| O=C1CSC(=S)N1/N=C/c1cc(Br)c(O)c(Br)c1 | inconclusive: 28.2 µM [quencher, side channel, single point] |  |
| COc1ccc(-c2nnc(NC(=O)c3ccc(F)cc3)o2)cc1 | inconclusive: 1.78 µM [quencher, side channel, partial curve] |  |
| Cc1nn(Cc2c(Cl)cccc2Cl)c(C)c1NC(=O)c1cn(-c2ccccc2)nc1-c1ccccc1 | inconclusive: 79.4 µM [inhibitor, single point] |  |
| Cn1c(=O)cc2c3c(c(N4CCCCC4)ccc31)C(=O)c1ccccc1-2 | inconclusive: 3.16 µM [quencher, side channel, full curve] |  |
| COc1ccccc1/C=C1\SC(=S)N(CC(=O)NC2CCS(=O)(=O)C2)C1=O (stereo unspecified) | inconclusive: 5.62 µM [quencher, side channel, partial curve] |  |
| COc1ccc(C(=O)NCC(=O)N=Nc2c(O)n(C)c3ccccc23)cc1OC | inconclusive: 3.98 µM [quencher, side channel, full curve] |  |
| CCOc1cc(/C=C2/NC(=O)N(CC(=O)Nc3cccc(C)c3)C2=O)ccc1OCC(N)=O | inconclusive: 12.6 µM [quencher, side channel, partial curve] |  |

| SMILES | Potency | activity change, negative = inhibition |
| --- | --- | --- |
| O=C(NC1CCS(=O)(=O)C1)c1ccc(Br)o1 (stereo unspecified) | inactive |  |
| CCOc1cc(/C=C2\SC(N3CCCC(C)C3)=NC2=O)ccc1O (stereo unspecified) | inconclusive: 8.91 µM [quencher, side channel, partial curve] |  |
| O=C(NCCN1CCCCC1)/C(=C/c1ccco1)NC(=O)c1ccccc1 | inconclusive: 28.2 µM [quencher, side channel, single point] |  |
| CCCn1c(O)c(N=NC(=O)CNC(=O)c2cccnc2)c2ccccc21 | inconclusive: 8.91 µM [quencher, side channel, partial curve] |  |
| Cc1ccc(-c2onc3ccc(C=O)cc23)cc1 | inconclusive: 20 µM [quencher, side channel, partial curve] |  |
| COCCNC(=O)/C(C#N)=C/c1ccc(O)cc1 | inconclusive: 31.6 µM [quencher, side channel, partial curve] |  |
| O=C(NNC(=O)c1ccc(Cl)c([N+](=O)[O-])c1)c1ccncc1 | inconclusive: 31.6 µM [quencher, side channel, partial curve, poor fit] |  |
| Cc1ccccc1C(=O)O/N=C1\CCS(=O)(=O)c2sccc21 | inconclusive: 3.98 µM [fluorescent, side channel, partial curve] |  |
| CN(C)c1ccc(N=Cc2ccco2)cc1 | inconclusive: 10 µM [quencher, side channel, partial curve] |  |
| CN1CCN(C(=O)CCCN2C(=O)/C(=C/c3ccccc3)SC2=S)CC1 | inconclusive: 11.2 µM [quencher, side channel, partial curve] |  |
| COc1ccc(CNC(=O)CCNS(=O)(=O)c2cccc3nsnc23)cc1 | inconclusive: 15.8 µM [quencher, side channel, partial curve] |  |
| CCCCCCCN1C2=NCCCN2c2ccccc21 | inactive |  |
| O=C(Cn1c(=O)oc2ccccc21)Nc1nc(-c2ccc(Br)cc2)cs1 |  | inconclusive: 8.39% [phenotype inactive] |
| Cc1ccsc1/C=N/Nc1nc(=O)[nH]nc1C | inconclusive: 28.2 µM [quencher, side channel, single point] |  |
| COc1cc2c(cc1OC)CN(C(=O)c1ccc(OC)c([N+](=O)[O-])c1)CC2 | inconclusive: 28.2 µM [quencher, side channel, single point] |  |
| COc1cccc(-c2nnc(-c3ccc(C)o3)o2)c1 | inactive |  |
| COc1ccc(/C=N/NC(=O)c2ccco2)cc1OCc1ccccc1 | inconclusive: 3.55 µM [quencher, side channel, single point] |  |
| COc1cc(C2Nc3ccc4ncccc4c3C3=C2C(=O)CCC3)cc(OC)c1OC (stereo unspecified) | inconclusive: 25.1 µM [quencher, side channel, single point] |  |
| O=C(NC1CCCCC1)c1cc([N+](=O)[O-])ccc1N1CCCCC1 | inconclusive: 15.8 µM [quencher, side channel, partial curve, poor fit] |  |
| CC(C)(C)c1cc[n+](-c2nc([O-])sc2C=O)cc1 | inconclusive: 14.1 µM [quencher, side channel, partial curve] |  |
| COc1cc(C2CC(=O)N(c3ccc(C)cc3)C(=O)C2)cc(OC)c1OC | inconclusive: 0.631 µM [fluorescent, side channel, single point] |  |

| SMILES | Potency | activity change, negative = inhibition |
| --- | --- | --- |
| COc1cccc(N2C(=NC(=O)CCc3ccccc3)SC3CS(=O)(=O)CC32)c1 (stereo unspecified) | inactive |  |
| O=C(COC(=O)c1cc([N+](=O)[O-])ccc1NCCO)c1ccc(Cl)cc1 | inconclusive: 12.6 µM [quencher, side channel, single point] |  |
| CCN1CCN(C(=O)Nc2ccccc2OC)CC1 | inconclusive: 0.141 µM [fluorescent, side channel, full curve, poor fit] |  |
| Cc1c(N=Nc2ccc(N(C)C)cc2)c(=O)n(-c2ccccc2)n1C | inconclusive: 7.94 µM [quencher, side channel, partial curve] |  |
| CCc1ccc(C(=O)NC(=S)Nc2ccc3c(c2)OCCO3)cc1 | inconclusive: 31.6 µM [fluorescent, side channel, partial curve] |  |
| O=C(NCCCn1ccnc1)/C(=C/c1cccs1)NC(=O)c1ccco1 | inactive |  |
| CC1CCC(C(C)C)C(OC(=O)Cn2c(-c3ccc(Br)cc3)[n+](C)c3ccccc32)C1 (stereo unspecified) | inactive |  |
| Cc1ccc(NC(=O)CN2C(=O)N/C(=C/c3cccn3-c3ccc(C(=O)O)cc3)C2=O)cc1 | inconclusive: 79.4 µM [inhibitor, single point] |  |
| CC(C(=O)c1ccc(-c2ccccc2)cc1)[n+]1cccc(C(N)=O)c1 (stereo unspecified) | inconclusive: 31.6 µM [quencher, side channel, single point] |  |
| O=S(=O)(Nc1nc2ccccc2nc1NCCO)c1cccc(Cl)c1 | inconclusive: 0.708 µM [quencher, side channel, full curve, poor fit] |  |
| CCN1CCN(S(=O)(=O)c2ccc(-c3cc(C)no3)s2)CC1 | inconclusive: 25.1 µM [quencher, side channel, partial curve] |  |
| CCOC(=O)c1c(NC(=O)c2c(Br)cnn2CC)sc(C)c1C | inconclusive: 39.8 µM [quencher, side channel, single point] |  |
| O=C(O)c1ccc(/C=N/NC(=S)NCCN2CCOCC2)cc1 | inconclusive: 28.2 µM [quencher, side channel, partial curve] |  |
| COCc1c(C(=O)OCC(=O)c2c(N)n(CC(C)C)c(=O)n(C)c2=O)oc2ccccc12 | inactive |  |
| CCn1nc(NS(=O)(=O)c2ccc([N+](=O)[O-])cc2)c2cc3ccc(C)cc3nc21 | inconclusive: 35.5 µM [quencher, side channel, partial curve] |  |
| Cc1nn(CC(=O)N(C)Cc2ccccc2)c(=O)c2cccn12 | inactive |  |
| Cc1ccc(OCC(=O)c2cc(C)c(C)cc2C)c([N+](=O)[O-])n1 | inactive |  |
| Cc1ccc(-c2nc(CN3CCCCC3)cc(CN3CCCCC3)c2O)cc1 | inactive |  |
| O=C(NCCNc1ccc([N+](=O)[O-])cc1C(F)(F)F)c1ccccc1 | inconclusive: 22.4 µM [activator, single point] |  |
